Assay results from PubChem BioAssay AID1030 (National Center for Advancing Translational Sciences (NCATS), 2008).
“And” between values parts separate entries of the source, which are not always exact repeats. Equal entries are not always repeated. In all, about 220,000 compounds went through this assay and about 16,000 (7.3%) were called active. The inconclusive results got no clear call from the source; some entries with a clear call stand among them for comparison. Calls come from the whole dose curve; as a rule, active = well fitted inhibition curve with a large enough effect (not every such curve was filed as active); inconclusive = small, poorly fitted or top-dose-only effect, or another doubt; inactive = no such curve, though single readings can be large or run the other way. A potency beside an inconclusive call is a rough fit, not a confirmed value.

target: Aldehyde dehydrogenase 1A1 (Homo sapiens) (UniProt P00352); assay: qHTS Assay for Inhibitors of Aldehyde Dehydrogenase 1 (ALDH1A1); conditions: Purified ALDH1A1, NADH fluorescence, propionaldehyde substrate; series mostly up to 75.3 µM;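 for activity, negative = inhibition: plate controls were no enzyme wells and a reference inhibitor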
UniProt P00352, sequence (P00352 whole entry, looked up): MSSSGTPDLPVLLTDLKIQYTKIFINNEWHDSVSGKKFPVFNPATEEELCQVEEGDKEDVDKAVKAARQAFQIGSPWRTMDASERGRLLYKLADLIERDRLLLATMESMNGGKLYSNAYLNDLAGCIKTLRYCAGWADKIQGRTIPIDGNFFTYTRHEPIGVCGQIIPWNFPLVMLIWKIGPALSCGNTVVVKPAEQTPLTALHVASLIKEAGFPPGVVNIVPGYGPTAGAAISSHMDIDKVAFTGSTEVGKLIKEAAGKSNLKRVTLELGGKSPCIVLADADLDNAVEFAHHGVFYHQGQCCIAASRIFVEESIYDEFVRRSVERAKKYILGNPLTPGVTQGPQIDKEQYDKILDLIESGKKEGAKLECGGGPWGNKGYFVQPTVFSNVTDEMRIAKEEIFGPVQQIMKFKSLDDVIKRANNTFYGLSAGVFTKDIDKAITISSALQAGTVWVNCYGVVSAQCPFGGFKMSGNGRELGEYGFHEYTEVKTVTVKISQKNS
Potency is the fitted concentration of half-maximal effect; tags give direction and shape of the fitted curve.

| Structure (SMILES) | Potency | activity, negative = inhibition |
| --- | --- | --- |
| CSc1nnc(-c2cccn(Cc3ccccc3)c2=O)o1 | inconclusive: 25.1 µM [inhibitor, partial curve] |  |
| COc1ccc(-c2csc(Nc3cccnc3)n2)cc1 | active: 28.2 µM |  |
| Nc1c2c(=O)oc(-c3ccccc3)cc2nn1-c1ccccc1 | inconclusive: 22.4 µM [inhibitor, partial curve] |  |
| CN(CCO)c1ncnc2c1sc1nc(N3CCOCC3)c3c(c12)CCC3 | inconclusive: 28.2 µM [inhibitor, partial curve] |  |
| COc1ccc(-c2noc(-c3cccc(Cl)c3)n2)cc1OC | inactive |  |
| COc1ccc(NC(=O)COc2nsnc2N2CCCCC2)cc1 | inconclusive: 39.8 µM [inhibitor, single point] |  |
| O=C(CSc1ccc2nnc(-c3cccnc3)n2n1)NCc1ccc2c(c1)OCO2 | inconclusive: 39.8 µM [inhibitor, single point] |  |
| CC(=O)c1ccc(NS(=O)(=O)c2ccc(C(C)(C)C)cc2)cc1 | active: 12.6 µM |  |
| Cc1cccc(C)c1Nc1c(-c2ccc(N3CCOCC3)cc2)nc2ncccn12 | inactive |  |
| CCc1ccc(C2=NN(S(C)(=O)=O)C(c3cccs3)C2)cc1 (stereo unspecified) | active: 20 µM |  |
| O=C(NCc1ccc(F)cc1)C1CCC(=O)N1CCc1ccccc1 (stereo unspecified) | inconclusive: 22.4 µM [inhibitor, single point] |  |
| O=C(COC(=O)C1(c2ccc(F)cc2)CCCC1)NC1CC1 | inconclusive: 28.2 µM [inhibitor, single point] |  |
| CCn1c(SCC(=O)Nc2ccc3c(c2)OCCO3)nnc1-c1cccs1 | inconclusive: 35.5 µM [inhibitor, single point] |  |
| O=C(c1ccco1)N1CCC2(CCCN(c3ccncc3)C2)CC1 | active: 3.55 µM |  |
| COc1cc(OC)cc(C(=O)N[C@H](C(=O)Nc2ccc(S(=O)(=O)N(C)C)cc2)C(C)C)c1 | inconclusive: 17.8 µM [inhibitor, partial curve] |  |
| COc1cc(-c2cc(=O)c3c(O)c(OC)c(OC)c(O)c3o2)ccc1O | active: 28.2 µM |  |
| O=c1cc(CSc2nnc(COc3ccccc3)n2-c2ccccc2)c2ccccc2[nH]1 | inactive |  |
| O=C(c1ccc(=O)oc1)N1CCC(C(O)(c2ccccc2)c2ccccc2)CC1 | inconclusive: 39.8 µM [inhibitor, partial curve] |  |
| Cc1cc(Cl)c(OCCCCN2CCOCC2)c(Br)c1 | inconclusive: 39.8 µM [inhibitor, single point] |  |
| C#Cc1cccc(NC(=O)c2ccc(Cl)cc2Cl)c1 | inactive |  |
| CC(CCc1ccccc1)NC(=O)CNC(=S)N(Cc1cccs1)C1CCCC1 (stereo unspecified) | inconclusive: 28.2 µM [inhibitor, single point] |  |
| COc1cc(/C=N/NC(=O)c2ccoc2C)cc(OC)c1O | inconclusive: 39.8 µM [inhibitor, partial curve] |  |
| C/C=C/Cn1c(SCc2ccc(Cl)cc2)nc2c1c(=O)[nH]c(=O)n2C | inconclusive: 39.8 µM [inhibitor, single point] |  |
| N#Cc1c(-c2ccc(Cl)cc2)nc2n(c1=O)CCCS2 | inconclusive: 39.8 µM [inhibitor, single point] |  |

| Structure (SMILES) | Potency | activity, negative = inhibition |
| --- | --- | --- |
| O=C(O)C1Sc2[nH]c(=O)sc2C2c3ccc(O)cc3OC(=O)C12 (stereo unspecified) | inconclusive: 39.8 µM [inhibitor, single point] |  |
| CCSc1nc(N)c(C#N)c(-c2ccco2)c1C#N | inconclusive: 31.6 µM [inhibitor, single point] |  |
| Cc1cccc(OCC(=O)N(Cc2cccs2)C2CCS(=O)(=O)C2)c1C (stereo unspecified) | inconclusive: 44.7 µM [inhibitor, single point] |  |
| COc1cc(C(=O)NC2CCN(Cc3nnnn3Cc3cccs3)CC2)cc(OC)c1OC | active: 8.91 µM |  |
| Cc1cc2cc(CNC(=O)c3ccc(C)c([N+](=O)[O-])c3)ccc2[nH]1 | inconclusive: 14.1 µM [inhibitor, partial curve] |  |
| Cc1ccccc1Nc1nc(N)nc(CN2CCN(Cc3ccc4c(c3)OCO4)CC2)n1 | inactive |  |
| O=C(C/C=N/OCc1ccc(Cl)cc1)c1cnc(-c2ccccc2)s1 | inconclusive: 20 µM [inhibitor, single point] |  |
| O=C(Nc1cccc2ccccc12)N1CCOCC1 | inconclusive: 39.8 µM [inhibitor, single point] |  |
| CCc1cccc(Nc2cc(C)nc3nc(C)nn23)c1 | inactive |  |
| N#Cc1ccsc1NC(=O)CN1CCN(c2ccccc2O)CC1 | inconclusive: 22.4 µM [inhibitor, single point] |  |
| CCOC(=O)c1[nH]c2ccccc2c1NC(=S)Nc1cc(C)ccc1C | inconclusive: 20 µM [inhibitor, partial curve] |  |
| CNC(=O)COC(=O)/C=C/c1cn(-c2ccccc2)nc1-c1ccc2c(c1)OCCO2 | inconclusive: 35.5 µM [inhibitor, partial curve] |  |
| COc1ccc(COCCN2CCN(S(=O)(=O)c3ccc(C)cc3)CCC2=O)cc1 | inconclusive: 31.6 µM [inhibitor, partial curve] and inconclusive: 17.8 µM [inhibitor, partial curve] |  |
| Cc1cccc(NC(=O)COc2ccc(/C=C\c3[nH]c(=O)[nH]c(=O)c3[N+](=O)[O-])cc2)c1 | inactive |  |
| CCOC(=O)Cc1csc(NC(=O)COc2ccc(N(C)S(=O)(=O)c3ccc(C)cc3)cc2)n1 | inconclusive: 39.8 µM [inhibitor, single point] |  |
| O=C1c2ccccc2C(=O)N1Cc1nn2c(-c3ccc(Cl)cc3)nnc2s1 | active: 14.1 µM |  |
| CCN(C(=O)CSc1nc2ccccc2n1CCc1ccccc1)C1CCS(=O)(=O)C1 (stereo unspecified) | inconclusive: 22.4 µM [inhibitor, partial curve] |  |
| COC(=O)c1ccc(NC2c3ncccc3C(=O)N2Cc2cccs2)cc1 (stereo unspecified) | inconclusive: 39.8 µM [inhibitor, single point] |  |
| O=C(O)c1ccc(N2C(=O)CC(SC(=Nc3ccccc3)Nc3ccccc3)C2=O)cc1 (stereo unspecified) | inactive |  |
| CCOc1ccc(N2C(=O)Nc3ccccc3C2(O)C(=O)NCc2ccccc2)cc1 (stereo unspecified) | inconclusive: 39.8 µM [inhibitor, single point] |  |
| COC(=O)CN(c1ccccc1C)S(C)(=O)=O | inactive |  |
| COc1ccc(-c2nc(O)c3cnccn23)cc1 | inactive |  |
| CCOC(=O)CCN1C(=O)[C@H]2[C@@H]3[C@H](O)C=CC(=O)[C@H]3CC[C@H]2C1=O |  | inactive: -2.23% [at 13.5 µM] |
| CC1CN(CCOc2ccccc2-c2ccccc2)CC(C)O1 (stereo unspecified) | inactive |  |

| Structure (SMILES) | Potency | activity, negative = inhibition |
| --- | --- | --- |
| CC(C)(/C=N/NC(=O)CSCc1ccccc1Cl)CCC#N | inconclusive: 39.8 µM [inhibitor, single point] |  |
| O=C1CC(NCCC2=CCCCC2)C(=O)N1c1cccc(Cl)c1Cl (stereo unspecified) | active: 5.62 µM |  |
| COc1ccccc1OC(=O)CN1C(=O)c2ccccc2C1=O | inconclusive: 39.8 µM [inhibitor, single point] |  |
| CCCOc1ccc(Cc2c(COCC)[nH]c(=S)[nH]c2=O)cc1 | inconclusive: 39.8 µM [inhibitor, single point] |  |
| O=C1C2CCCN2C(=O)N1CCCCN1CCN(CCO)CC1 (stereo unspecified) | inconclusive: 25.1 µM [inhibitor, partial curve] |  |
| COc1cccc2c(=O)ccoc12 | inconclusive: 28.2 µM [inhibitor, partial curve] |  |
| O=C(NCc1ccco1)c1c(F)cccc1Cl | inactive |  |
| Cc1ccc(C(=O)N/C(=C/c2ccco2)C(=O)Nc2cccc(C)c2)cc1 | inconclusive: 39.8 µM [inhibitor, single point] |  |
| c1nc(NCCN2CCOCC2)c2cc(-c3ccc4c(c3)OCO4)ccc2n1 | inconclusive: 39.8 µM [inhibitor, single point] |  |
| O=C(O)c1cccc(OCCO)c1 |  | inactive: -5.91% [at 13.5 µM] |
| COc1cc(/C=C2\CCCc3c2nc2ccccc2c3C(=O)O)cc(OC)c1O | active: 14.1 µM |  |
| COC(=O)C1=C(C)N(Cc2ccccc2)[C@]23O[C@](C(=O)OC)(C(=O)N2C1c1ccccc1)C1C(=O)N(c2ccccc2)C(=O)C13 (stereo partly specified) |  | inactive: -0.865% [at 13.5 µM] and inactive: 15.6% [at 13.5 µM] |
| CCNC(=S)N(CCc1cccc(C)c1)Cc1cc2cc(OC)c(OC)cc2[nH]c1=O | inconclusive: 39.8 µM [inhibitor, single point] |  |
| CCC1(CC)NC(=O)N(CC(=O)Nc2sc3c(c2C(N)=O)CCC3)C1=O | active: 22.4 µM |  |
| O=C(c1ccc2c3c(cccc13)CC2)C1CCCN(Cc2ccc(OCCO)cc2)C1 (stereo unspecified) | inconclusive: 39.8 µM [inhibitor, single point] |  |
| N=C(N=C(N)N)N1CCc2ccccc21 | inactive |  |
| COc1cc([N+](=O)[O-])cc(/C=N/NC(=O)c2ccc(NC(=O)c3ccc(C)cc3)cc2)c1O | inactive |  |
| O=C(Nc1ccc(S(=O)(=O)Nc2ncccn2)cc1)c1ccc(Br)o1 | inconclusive: 39.8 µM [inhibitor, single point] |  |
| Cn1c(=O)c(-c2ccccc2)nc2cnc(OCc3ccccc3)nc21 | inconclusive: 25.1 µM [inhibitor, partial curve] |  |
| S=c1[nH]nc(NCCc2ccccc2)s1 | active: 12.6 µM |  |
| Cn1c(=O)n(C)c2cc(NS(=O)(=O)c3ccc(C(C)(C)C)cc3)ccc21 | active: 0.562 µM |  |
| O=C(N/N=C/c1ccc2c(c1)OCO2)/C(=C/c1ccc2c(c1)OCO2)NC(=O)c1ccccc1 | inactive |  |
| CC(=O)Nc1ccc(Nc2nc3c(S(=O)(=O)c4ccc(C)c(C)c4)nnn3c3ccccc23)cc1 | inactive |  |
